Among the data in PMC5892938 are binding signal (log2 fold change) values, retold here.

Some of the results follow. At the low end of the ranking, values are background and their order means little.

This experiment concerns the target GST-SBP-SLBP (stem-loop binding protein) (UniProt Q14493). In words: targeted RNA Bind-n-Seq.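 Also: DESeq read counts versus GST-SBP nonspecific binding control pulldown.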 The following applies: RBNS binding buffer: 25 mM Tris pH 7.5, 150 mM KCl, 3 mM MgCl2, 0.1% Tween, 0.5 mg/mL BSA, 1 mM DTT; 27 nM protein, 750 pM RNA pool; temperature not stated; high values mean tight binding.
Turning to “GGUCACGUCUCAAUCAACUCAUUCCCAGGAGUUUCCUCCUGCUUUCUCAACAGCUCGCAGUCAAG”, the binding signal (log2 fold change) came out at 0.00431. Turning to “GGUCACGUCUCAAUCAACUCCUAAGAGGGGGGGAAAACCCCUUUACCCUCACCAUCAACAGCUCGCAGUCAAG”, the binding signal (log2 fold change) was 0.101.

For the sequence “GGUCACGUCUCAAUCAACUCAACUCCCAGGGAAAGCCCUGGCUUAUUCAACAGCUCGCAGUCAAG”, the binding signal (log2 fold change) stood at 0.17. In the case of “GGUCACGUCUCAAUCAACUCAAUUUCAGGAGUUUACUCCUGCUAUUUCAACAGCUCGCAGUCAAG”, the binding signal (log2 fold change) is 0.286. To “GGUCACGUCUCAAUCAACUCUCACGAGGGGGGGAAAACCCCUUUACCCUCACAUUCAACAGCUCGCAGUCAAG” belongs 0.0923; to “GGUCACGUCUCAAUCAACUCUAUUUCCAGGGAAAUCCCUGGCUAAUUCAACAGCUCGCAGUCAAG”, -0.106. To “GGUCACGUCUCAAUCAACUCUUCGUCAGGAGUUUUCUCCUGUUAAUUCAACAGCUCGCAGUCAAG” belongs -0.2. Take “GGUCACGUCUCAAUCAACUCAUCUCCAGGAGUUUACUCCUGCAUUUUCAACAGCUCGCAGUCAAG”: the binding signal (log2 fold change) amounted to 0.0927.

For the sequence “GGUCACGUCUCAAUCAACUCAGUCUCAGGAGUUUUCUCCUGUUUUCUCAACAGCUCGCAGUCAAG”, the binding signal (log2 fold change) is -0.0861. Next, “GGUCACGUCUCAAUCAACUCUACUCCAGGAGUUUUCUCCUGCUUUUUCAACAGCUCGCAGUCAAG”: 0.0453; “GGUCACGUCUCAAUCAACUCCUAAGAGGGGGGGAAAACCCCUUUACCCUCGUAAUCAACAGCUCGCAGUCAAG”: 0.211.

In the case of “GGUCACGUCUCAAUCAACUCAUCUUCAGGAGUUUACUCCUGUAAUCUCAACAGCUCGCAGUCAAG”, the binding signal (log2 fold change) was -0.0769. To “GGUCACGUCUCAAUCAACUCAUUCUCAGGAGUUUUCUCCUGUAUACUCAACAGCUCGCAGUCAAG” belongs 0.0687; to “GGUCACGUCUCAAUCAACUCAAUCCCCAGGGAAAACCCUGGCAAACUCAACAGCUCGCAGUCAAG”, -0.0154. To “GGUCACGUCUCAAUCAACUCAACUCCCAGGGAAAGCCCUGGCUUUUUCAACAGCUCGCAGUCAAG” belongs 0.0567. Next, “GGUCACGUCUCAAUCAACUCUUUUCCCAGGGAAAACCCUGGCAUUUUCAACAGCUCGCAGUCAAG”: 0.0827; “GGUCACGUCUCAAUCAACUCUUCUUCCAGGGAAAGCCCUGGCGUAUUCAACAGCUCGCAGUCAAG”: 0.0168. On to “GGUCACGUCUCAAUCAACUCUACUCCAGGAGUUUACUCCUGUAUAUUCAACAGCUCGCAGUCAAG”, for which the binding signal (log2 fold change) is 0.125. Next, “GGUCACGUCUCAAUCAACUCUUCCCCCAGGGAAACCCCUGGUUAUCUCAACAGCUCGCAGUCAAG”: -0.0551; “GGUCACGUCUCAAUCAACUCACUAGAGGGGGGGAAAACCCCUUUACCCUCGAUAUCAACAGCUCGCAGUCAAG”: -0.102; “GGUCACGUCUCAAUCAACUCAAUCCCAGGAGUUUUCUCCUGUAUACUCAACAGCUCGCAGUCAAG”: 0.0384. To “GGUCACGUCUCAAUCAACUCAAUCCCCAGGGAAAGCCCUGGCUAUUUCAACAGCUCGCAGUCAAG” belongs 0.226; to “GGUCACGUCUCAAUCAACUCAUCCUCAGGAGUUUCCUCCUGUUAUCUCAACAGCUCGCAGUCAAG”, 0.203; to “GGUCACGUCUCAAUCAACUCUUUCGCAGGAGUUUCCUCCUGGUAAUUCAACAGCUCGCAGUCAAG”, -0.0991. Next, “GGUCACGUCUCAAUCAACUCAAUAGAGGGGGGGAAAACCCCUUUACCCUCAAUAUCAACAGCUCGCAGUCAAG”: 0.177; “GGUCACGUCUCAAUCAACUCAACUCCCAGGGAAAUCCCUGGUUUUUUCAACAGCUCGCAGUCAAG”: -0.0561.

In the case of “GGUCACGUCUCAAUCAACUCAUCCCCCAGGGAAAACCCUGGCUUUCUCAACAGCUCGCAGUCAAG”, the binding signal (log2 fold change) is -0.203. Take “GGUCACGUCUCAAUCAACUCAACUCCCAGGGAAAGCCCUGGCAAUCUCAACAGCUCGCAGUCAAG”: the binding signal (log2 fold change) is -0.111.

Regarding “GGUCACGUCUCAAUCAACUCAUACGAGGGGGGGAAAACCCCUUUACCCUCUCAUUCAACAGCUCGCAGUCAAG”, the binding signal (log2 fold change) was found to be 0.144. For “GGUCACGUCUCAAUCAACUCAACAGAGGGGGGGAAAACCCCUUUACCCUCAGAAUCAACAGCUCGCAGUCAAG”, the binding signal (log2 fold change) was -0.409. As to “GGUCACGUCUCAAUCAACUCUAUCCCAGGAGUUUACUCCUGUUAUUUCAACAGCUCGCAGUCAAG”, the binding signal (log2 fold change) is -0.119.

For the sequence “GGUCACGUCUCAAUCAACUCAUUCUCAGGAGUUUACUCCUGUAAUUUCAACAGCUCGCAGUCAAG”, the binding signal (log2 fold change) stood at 0.0981. As to “GGUCACGUCUCAAUCAACUCUUUUCCAGGAGUUUACUCCUGCAAUUUCAACAGCUCGCAGUCAAG”, the binding signal (log2 fold change) stood at 0.288.

“GGUCACGUCUCAAUCAACUCAUUCCCAGGAGUUUCCUCCUGUAUAUUCAACAGCUCGCAGUCAAG”: the binding signal (log2 fold change) turned out to be 0.205. For “GGUCACGUCUCAAUCAACUCUUCCCCCAGGGAAACCCCUGGCUUAUUCAACAGCUCGCAGUCAAG”, the binding signal (log2 fold change) is -0.121. To “GGUCACGUCUCAAUCAACUCCUCAGAGGGGGGGAAAACCCCUUUACCCUCCUAUUCAACAGCUCGCAGUCAAG” belongs 0.227; to “GGUCACGUCUCAAUCAACUCUAUUCCCAGGGAAAUCCCUGGCAUACUCAACAGCUCGCAGUCAAG”, -0.13. Next, “GGUCACGUCUCAAUCAACUCUACUCCCAGGGAAAGCCCUGGCUAUUUCAACAGCUCGCAGUCAAG”: -0.0216; “GGUCACGUCUCAAUCAACUCUCCGGAGGGGGGGAAAACCCCUUUACCCUCAACAUCAACAGCUCGCAGUCAAG”: -0.223. Next, “GGUCACGUCUCAAUCAACUCCUCCGAGGGGGGGAAAACCCCUUUACCCUCAUAAUCAACAGCUCGCAGUCAAG”: -0.105; “GGUCACGUCUCAAUCAACUCUCCAGAGGGGGGGAAAACCCCUUUGCCCUCAAUUUCAACAGCUCGCAGUCAAG”: -0.117. For the sequence “GGUCACGUCUCAAUCAACUCAACGCCAGGAGUUUCCUCCUGUUUAUUCAACAGCUCGCAGUCAAG”, the binding signal (log2 fold change) is -0.0523. Next, “GGUCACGUCUCAAUCAACUCUACUUCCAGGGAAAACCCUGGUAAACUCAACAGCUCGCAGUCAAG”: 0.0385. Consider “GGUCACGUCUCAAUCAACUCAACAGAGGGGGGGAAAACCCCUUUACCCUCCAGAUCAACAGCUCGCAGUCAAG”, for which the binding signal (log2 fold change) is -0.176. To “GGUCACGUCUCAAUCAACUCAUUUUCAGGAGUUUACUCCUGUUAUCUCAACAGCUCGCAGUCAAG” belongs -0.134. To “GGUCACGUCUCAAUCAACUCCAUAGAGGGGGGGAAAACCCCUUUACCCUCACAAUCAACAGCUCGCAGUCAAG” belongs -0.00136; to “GGUCACGUCUCAAUCAACUCUACUUCCAGGGAAAGCCCUGGUAAAUUCAACAGCUCGCAGUCAAG”, 0.096. To “GGUCACGUCUCAAUCAACUCAAUCCCAGGAGUUUACUCCUGUUAUUUCAACAGCUCGCAGUCAAG” belongs 0.0596; to “GGUCACGUCUCAAUCAACUCUAUUUCAGGAGUUUCCUCCUGUAUAUUCAACAGCUCGCAGUCAAG”, -0.0806. Consider “GGUCACGUCUCAAUCAACUCAUUUUCCAGGGAAAUCCCUGGUAAUUUCAACAGCUCGCAGUCAAG”, for which the binding signal (log2 fold change) is -0.0538. Next, “GGUCACGUCUCAAUCAACUCUUCCCCAGGAGUUUUCUCCUGUUUUUUCAACAGCUCGCAGUCAAG”: -0.051. Next, “GGUCACGUCUCAAUCAACUCUUCUUCAGGAGUUUUCUCCUGUAUUUUCAACAGCUCGCAGUCAAG”: 0.0134; “GGUCACGUCUCAAUCAACUCUACUUCAGGAGUUUCCUCCUGCUUAUUCAACAGCUCGCAGUCAAG”: -0.00559. Next, “GGUCACGUCUCAAUCAACUCAUCUUCCAGGGAAAUCCCUGGCAUUUUCAACAGCUCGCAGUCAAG”: 0.187; “GGUCACGUCUCAAUCAACUCUUACGAGGGGGGGAAAACCCCUUUACCCUCAAACUCAACAGCUCGCAGUCAAG”: 0.0503; “GGUCACGUCUCAAUCAACUCAAGUCCCAGGGAAAGCCCUGGCAUAUUCAACAGCUCGCAGUCAAG”: -0.157.

For the sequence “GGUCACGUCUCAAUCAACUCUAACGAGGGGGGGAAAACCCCUUUACCCUCAUCCUCAACAGCUCGCAGUCAAG”, the binding signal (log2 fold change) is 0.151. Next, “GGUCACGUCUCAAUCAACUCUAUAGAGGGGGGGAAAACCCCUUUGCCCUCCAAAUCAACAGCUCGCAGUCAAG”: -0.191; “GGUCACGUCUCAAUCAACUCUUCGCCCAGGGAAACCCCUGGUUAAUUCAACAGCUCGCAGUCAAG”: -0.419. Next, “GGUCACGUCUCAAUCAACUCUACUCCCAGGGAAAGCCCUGGUUAUUUCAACAGCUCGCAGUCAAG”: 0.0779. “GGUCACGUCUCAAUCAACUCAUGUCCAGGAGUUUUCUCCUGCUAAUUCAACAGCUCGCAGUCAAG”: the binding signal (log2 fold change) is -0.167. To “GGUCACGUCUCAAUCAACUCCUCAGAGGGGGGGAAAACCCCUUUACCCUCACAAUCAACAGCUCGCAGUCAAG” belongs -0.106. Next, “GGUCACGUCUCAAUCAACUCUUUCGAGGGGGGGAAAACCCCUUUACCCUCUCCAUCAACAGCUCGCAGUCAAG”: 0.0484; “GGUCACGUCUCAAUCAACUCUUUCUCAGGAGUUUACUCCUGCAAAUUCAACAGCUCGCAGUCAAG”: 0.0277; “GGUCACGUCUCAAUCAACUCAUACGAGGGGGGGAAAACCCCUUUACCCUCACAAUCAACAGCUCGCAGUCAAG”: -0.0493. To “GGUCACGUCUCAAUCAACUCAAUCCCAGGAGUUUACUCCUGCUAUGUCAACAGCUCGCAGUCAAG” belongs 0.112. As to “GGUCACGUCUCAAUCAACUCUUUCUCCAGGGAAAUCCCUGGCAAAUUCAACAGCUCGCAGUCAAG”, the binding signal (log2 fold change) was -0.0691. Next, “GGUCACGUCUCAAUCAACUCUAAAGAGGGGGGGAAAACCCCUUUACCCUCGUAUUCAACAGCUCGCAGUCAAG”: -0.11; “GGUCACGUCUCAAUCAACUCAUCUCCCAGGGAAAACCCUGGUAAUCUCAACAGCUCGCAGUCAAG”: 0.242. Consider “GGUCACGUCUCAAUCAACUCAAUCUCAGGAGUUUGCUCCUGUUUAUUCAACAGCUCGCAGUCAAG”, for which the binding signal (log2 fold change) is -0.123. For “GGUCACGUCUCAAUCAACUCCUCAGAGGGGGGGAAAACCCCUUUGCCCUCCAAAUCAACAGCUCGCAGUCAAG”, the binding signal (log2 fold change) came to 0.317. Next, “GGUCACGUCUCAAUCAACUCAUUAGAGGGGGGGAAAACCCCUUUGCCCUCACCAUCAACAGCUCGCAGUCAAG”: 0.0384; “GGUCACGUCUCAAUCAACUCUAUCUCAGGAGUUUCCUCCUGCUAUUUCAACAGCUCGCAGUCAAG”: 0.0291.
